# Values quoted from earlier work in PMC11006913.
# The list shows a part of the results.
# Target: NKX2-5 K183E (Homo sapiens) (UniProt P52952)
# Conditions: PBM; conditions not shown; double strand, one strand shown; scale: upbm affinity estimate (log intensity, higher = more binding, comparable within an allelic series)
row,Sequence,binding signal
1,TAAGTGGA [8-mer TAAGTGGA],12.1
2,GACACTTA [8-mer GACACTTA],11.4
3,TAAGTGCA [8-mer TAAGTGCA],11.4
4,ACACTTAA [8-mer ACACTTAA],11.5
5,ACACTTGA [8-mer ACACTTGA],11.5
6,AAGTGCAG [8-mer AAGTGCAG],10.7
7,AACCACTT [8-mer AACCACTT],12.1
8,CACTTAGC [8-mer CACTTAGC],11.5
9,ACTGTCCC [8-mer ACTGTCCC],10.4
10,GACCCCGC [8-mer GACCCCGC],10.2
11,GGCCAAAC [8-mer GGCCAAAC],10.3
12,AAGTGCGT [8-mer AAGTGCGT],10.9

# Target: NKX2-5 R161P (Homo sapiens) (UniProt P52952)
# Conditions: PBM; conditions not shown; double strand, one strand shown; scale: upbm affinity estimate (log intensity, higher = more binding, comparable within an allelic series)
row,Sequence,binding signal
1,AAGTACCT [8-mer AAGTACCT],12.7
2,AGTACTTA [8-mer AGTACTTA],12.8
3,GCACTTCA [8-mer GCACTTCA],12.8
4,CTTCCGTC [8-mer CTTCCGTC],10.3
5,CACTCAAG [8-mer CACTCAAG],12.4
6,ACAGGGTC [8-mer ACAGGGTC],10.5
7,AAGTGGGC [8-mer AAGTGGGC],12.5
8,CAAGTACC [8-mer CAAGTACC],12.7
9,GTCCGCCA [8-mer GTCCGCCA],10.5
10,AAGGCAGC [8-mer AAGGCAGC],10
11,GGTACTTA [8-mer GGTACTTA],13
12,AAGTGGAT [8-mer AAGTGGAT],12.7
13,CGTTCCGC [8-mer CGTTCCGC],10.1
14,CCGATCGC [8-mer CCGATCGC],10.3
15,ACACGGCG [8-mer ACACGGCG],10.2
16,ACCTCCCG [8-mer ACCTCCCG],10.3
17,CCCACTTA [8-mer CCCACTTA],13.1
18,CGGCGTAC [8-mer CGGCGTAC],10.3
19,CGAGGCGC [8-mer CGAGGCGC],10.6
20,CTAAGTGC [8-mer CTAAGTGC],12.9

row,Sequence,binding signal
1,CTGAGGCA [8-mer CTGAGGCA],10.4
2,CGGGTCAG [8-mer CGGGTCAG],10.2
3,CTAAGTAC [8-mer CTAAGTAC],12.3
4,GCTCTTGA [8-mer GCTCTTGA],12
5,AAACCGGG [8-mer AAACCGGG],10.2
6,AAGTGGAC [8-mer AAGTGGAC],12.5
7,ACACTTCA [8-mer ACACTTCA],12.5
8,CACTTACC [8-mer CACTTACC],12.5
9,TAAGTGGA [8-mer TAAGTGGA],13.3
10,GACACTTA [8-mer GACACTTA],12.8
11,TAAGTGCA [8-mer TAAGTGCA],12.8
12,ACACTTAA [8-mer ACACTTAA],12.9
13,ACACTTGA [8-mer ACACTTGA],13
14,AAGTGCAG [8-mer AAGTGCAG],12.1
15,AACCACTT [8-mer AACCACTT],12.9
16,CACTTAGC [8-mer CACTTAGC],12.6
17,ACTGTCCC [8-mer ACTGTCCC],10.6
18,GACCCCGC [8-mer GACCCCGC],10.2
19,GGCCAAAC [8-mer GGCCAAAC],10.3
20,AAGTGCGT [8-mer AAGTGCGT],12.2

# Target: NKX2-5 R190C (Homo sapiens) (UniProt P52952)
# Conditions: PBM; conditions not shown; double strand, one strand shown; scale: upbm affinity estimate (log intensity, higher = more binding, comparable within an allelic series)
row,Sequence,binding signal
1,AAGTACCT [8-mer AAGTACCT],10.6
2,AGTACTTA [8-mer AGTACTTA],10.9
3,GCACTTCA [8-mer GCACTTCA],10.7
4,CTTCCGTC [8-mer CTTCCGTC],10.4
5,CACTCAAG [8-mer CACTCAAG],10.6
6,ACAGGGTC [8-mer ACAGGGTC],10.3
7,AAGTGGGC [8-mer AAGTGGGC],10.5
8,CAAGTACC [8-mer CAAGTACC],10.7
9,GTCCGCCA [8-mer GTCCGCCA],10.4
10,AAGGCAGC [8-mer AAGGCAGC],10.1
11,GGTACTTA [8-mer GGTACTTA],10.7
12,AAGTGGAT [8-mer AAGTGGAT],10.6
13,CGTTCCGC [8-mer CGTTCCGC],10.2
14,CCGATCGC [8-mer CCGATCGC],10.3
15,ACACGGCG [8-mer ACACGGCG],10.3
16,ACCTCCCG [8-mer ACCTCCCG],10.2
17,CCCACTTA [8-mer CCCACTTA],10.8
18,CGGCGTAC [8-mer CGGCGTAC],10.3
19,CGAGGCGC [8-mer CGAGGCGC],10.3
20,CTAAGTGC [8-mer CTAAGTGC],10.7

row,Sequence,binding signal
1,CTGAGGCA [8-mer CTGAGGCA],10.4
2,CGGGTCAG [8-mer CGGGTCAG],10.2
3,CTAAGTAC [8-mer CTAAGTAC],10.6
4,GCTCTTGA [8-mer GCTCTTGA],10.3
5,AAACCGGG [8-mer AAACCGGG],10.1
6,AAGTGGAC [8-mer AAGTGGAC],10.5
7,ACACTTCA [8-mer ACACTTCA],10.9
8,CACTTACC [8-mer CACTTACC],10.8
9,TAAGTGGA [8-mer TAAGTGGA],10.9
10,GACACTTA [8-mer GACACTTA],11
11,TAAGTGCA [8-mer TAAGTGCA],10.9
12,ACACTTAA [8-mer ACACTTAA],11
13,ACACTTGA [8-mer ACACTTGA],10.8
14,AAGTGCAG [8-mer AAGTGCAG],10.6
15,AACCACTT [8-mer AACCACTT],10.8
16,CACTTAGC [8-mer CACTTAGC],10.7
17,ACTGTCCC [8-mer ACTGTCCC],10.4
18,GACCCCGC [8-mer GACCCCGC],10.1
19,GGCCAAAC [8-mer GGCCAAAC],10.2
20,AAGTGCGT [8-mer AAGTGCGT],10.6
